The values that follow come from patent publication US20070128190A1 (GLENMARK PHARMACEUTICALS S A, published 2007).

The target in the experiment is T1, TMC-2206.
T1 construct: murine IgG1/κ secreted by hybridoma BHA2.1; labelled with Eu-N1-ITC where used as tracer; also called BHA2.1
In words: fusion protein competing Eu-TMC-2206 off α2β1-coated plate. The protocol: Wells in a 96 well microtiter plate were coated with platelet α2β1-integrin (custom-coated with human platelet α2β1 by GTI Inc., Wis.) and then blocked with nonfat milk. […] After concentration in prewashed MicroSep concentrators (30-kDa cutoff; Pall Life Sciences at 9500 rpm (7000×g) in a JA-20 rotor (Beckman Instruments, Inc.) for 20 minutes at 4° C.), antibodies were adjusted to 4.0 mg/mL with PBS containing a final concentration of 100 mM NaHCO₃, pH 9.3. The mAb/bicarbonate mixture (0.250 mL) was gently mixed into a vial containing 0.2 mg N¹-(p-isothiocyanatobenzyl)-diethylenetriamine-N¹,N²,N³N³-tetraacetic acid chelated with Eu³⁺ (Eu-N1-ITC; Perkin Elmer Life Sciences) and reacted overnight at 4° C. without stirring. Each labeled antibody mixture was applied to a separate PD-10 column (GE Biosciences, Piscataway, N.J.) pre-equilibrated with Running Buffer (50 mM Tris, pH 7.4 and 138 mM NaCl). Fractions (0.5 mL) were collected and assayed for total protein (Bradford reagent; Bio-Rad Laboratories, Hercules, Calif.) using a SpectraMax 384 absorbance plate reader and for europium after 1:10.000 dilution in DELFIA Enhancement Solution (Perkin-Elmer) by time-resolved fluorescence (TRF) using a Victor2 multi-label plate reader (Perkin Elmer). […]

T1 sequence (VH, as listed by the source, chain 1 of 2): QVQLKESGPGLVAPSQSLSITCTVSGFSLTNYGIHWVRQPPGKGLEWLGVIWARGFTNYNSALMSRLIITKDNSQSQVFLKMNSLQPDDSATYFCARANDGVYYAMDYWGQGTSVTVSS
T1 sequence (VL, as listed by the source, chain 2 of 2): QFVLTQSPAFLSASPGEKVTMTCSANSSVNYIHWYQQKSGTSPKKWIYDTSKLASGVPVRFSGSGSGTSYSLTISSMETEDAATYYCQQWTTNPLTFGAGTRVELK

B1: GST-hα2 I domain K78E (other)
chain: [sequence of about 200 residues omitted]GSSPDFQLSASFSPATQPCPSLIDVVVVCDESNSIYPWDAVKNFLEKFVQGLDIGPTKTQVGLIQYANNPRVVFNLNTYETKEEMIVATSQTSQYGGDLTNTFGAIQYARKYAYSAASGGRRSATKVMVVVTDGESHDGSMLKAVIDQCNHDNILRFGIAVLGYLNRNALDTKNLIKEIKAIASIPTERYFFNVSDEAALLEKAGTLGEQIFSIEGTVEFIVTD
notes: same construct as m41
Regarding B1, the affinity corresponds to a Ki of 0.51 nM.
